No constants are given. Whether binding was seen depends on the method and setting. For some of these results: Binding seen in cells or lysates may run through a third protein. Some binding calls cover weakened binding; strength is not graded here.
Key:
[1] = target: CD36 (human (endogenous in THP-1 and HMDMs)) (UniProt P16671); experiment: proximity ligation; THP-1 cells treated with peptide (LL37 or Cramp) with or without LDL; PLA between the peptide and LDL receptors (spatial correlation <40 nm); only the binder purified
[2] = target: LDL receptor (LDLR) (human (endogenous in THP-1 and HMDMs)) (UniProt P01130); experiment: as above
[3] = target: T1, scavenger receptor class B member 1 (SR-B1) (human (endogenous in THP-1 and HMDMs)) (UniProt Q8WTV0); experiment: as above
T1 sequence: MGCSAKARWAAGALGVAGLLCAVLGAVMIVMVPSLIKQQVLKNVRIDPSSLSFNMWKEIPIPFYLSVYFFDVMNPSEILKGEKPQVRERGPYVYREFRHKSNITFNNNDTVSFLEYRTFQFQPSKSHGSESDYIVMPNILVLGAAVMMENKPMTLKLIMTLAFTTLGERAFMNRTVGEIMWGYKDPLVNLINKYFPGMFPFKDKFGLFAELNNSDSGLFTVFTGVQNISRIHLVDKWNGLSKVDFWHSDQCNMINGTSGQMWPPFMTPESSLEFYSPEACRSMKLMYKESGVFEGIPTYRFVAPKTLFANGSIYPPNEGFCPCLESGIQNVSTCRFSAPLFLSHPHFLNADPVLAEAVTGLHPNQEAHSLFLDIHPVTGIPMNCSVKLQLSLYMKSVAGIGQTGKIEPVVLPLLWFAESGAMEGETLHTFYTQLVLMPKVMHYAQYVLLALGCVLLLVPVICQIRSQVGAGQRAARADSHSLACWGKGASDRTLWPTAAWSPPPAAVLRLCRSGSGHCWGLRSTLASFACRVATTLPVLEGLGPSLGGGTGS

Sequences of proteins named here, by UniProt entry; tags and fusion partners are left off. Residues count along the entry.
UniProt P16671: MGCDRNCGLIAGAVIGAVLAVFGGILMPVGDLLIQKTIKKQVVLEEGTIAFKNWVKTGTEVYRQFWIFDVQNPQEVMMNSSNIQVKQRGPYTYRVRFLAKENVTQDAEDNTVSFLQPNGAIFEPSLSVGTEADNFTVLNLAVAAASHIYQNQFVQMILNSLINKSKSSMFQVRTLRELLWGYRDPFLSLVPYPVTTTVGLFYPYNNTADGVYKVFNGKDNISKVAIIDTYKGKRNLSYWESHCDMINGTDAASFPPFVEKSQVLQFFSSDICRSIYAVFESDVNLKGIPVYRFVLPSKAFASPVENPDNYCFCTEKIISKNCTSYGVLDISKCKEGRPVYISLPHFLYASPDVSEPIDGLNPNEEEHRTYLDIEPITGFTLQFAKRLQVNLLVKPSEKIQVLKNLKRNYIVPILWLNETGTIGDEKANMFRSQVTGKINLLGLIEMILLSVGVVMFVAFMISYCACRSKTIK
UniProt P04114, residues 28-4563: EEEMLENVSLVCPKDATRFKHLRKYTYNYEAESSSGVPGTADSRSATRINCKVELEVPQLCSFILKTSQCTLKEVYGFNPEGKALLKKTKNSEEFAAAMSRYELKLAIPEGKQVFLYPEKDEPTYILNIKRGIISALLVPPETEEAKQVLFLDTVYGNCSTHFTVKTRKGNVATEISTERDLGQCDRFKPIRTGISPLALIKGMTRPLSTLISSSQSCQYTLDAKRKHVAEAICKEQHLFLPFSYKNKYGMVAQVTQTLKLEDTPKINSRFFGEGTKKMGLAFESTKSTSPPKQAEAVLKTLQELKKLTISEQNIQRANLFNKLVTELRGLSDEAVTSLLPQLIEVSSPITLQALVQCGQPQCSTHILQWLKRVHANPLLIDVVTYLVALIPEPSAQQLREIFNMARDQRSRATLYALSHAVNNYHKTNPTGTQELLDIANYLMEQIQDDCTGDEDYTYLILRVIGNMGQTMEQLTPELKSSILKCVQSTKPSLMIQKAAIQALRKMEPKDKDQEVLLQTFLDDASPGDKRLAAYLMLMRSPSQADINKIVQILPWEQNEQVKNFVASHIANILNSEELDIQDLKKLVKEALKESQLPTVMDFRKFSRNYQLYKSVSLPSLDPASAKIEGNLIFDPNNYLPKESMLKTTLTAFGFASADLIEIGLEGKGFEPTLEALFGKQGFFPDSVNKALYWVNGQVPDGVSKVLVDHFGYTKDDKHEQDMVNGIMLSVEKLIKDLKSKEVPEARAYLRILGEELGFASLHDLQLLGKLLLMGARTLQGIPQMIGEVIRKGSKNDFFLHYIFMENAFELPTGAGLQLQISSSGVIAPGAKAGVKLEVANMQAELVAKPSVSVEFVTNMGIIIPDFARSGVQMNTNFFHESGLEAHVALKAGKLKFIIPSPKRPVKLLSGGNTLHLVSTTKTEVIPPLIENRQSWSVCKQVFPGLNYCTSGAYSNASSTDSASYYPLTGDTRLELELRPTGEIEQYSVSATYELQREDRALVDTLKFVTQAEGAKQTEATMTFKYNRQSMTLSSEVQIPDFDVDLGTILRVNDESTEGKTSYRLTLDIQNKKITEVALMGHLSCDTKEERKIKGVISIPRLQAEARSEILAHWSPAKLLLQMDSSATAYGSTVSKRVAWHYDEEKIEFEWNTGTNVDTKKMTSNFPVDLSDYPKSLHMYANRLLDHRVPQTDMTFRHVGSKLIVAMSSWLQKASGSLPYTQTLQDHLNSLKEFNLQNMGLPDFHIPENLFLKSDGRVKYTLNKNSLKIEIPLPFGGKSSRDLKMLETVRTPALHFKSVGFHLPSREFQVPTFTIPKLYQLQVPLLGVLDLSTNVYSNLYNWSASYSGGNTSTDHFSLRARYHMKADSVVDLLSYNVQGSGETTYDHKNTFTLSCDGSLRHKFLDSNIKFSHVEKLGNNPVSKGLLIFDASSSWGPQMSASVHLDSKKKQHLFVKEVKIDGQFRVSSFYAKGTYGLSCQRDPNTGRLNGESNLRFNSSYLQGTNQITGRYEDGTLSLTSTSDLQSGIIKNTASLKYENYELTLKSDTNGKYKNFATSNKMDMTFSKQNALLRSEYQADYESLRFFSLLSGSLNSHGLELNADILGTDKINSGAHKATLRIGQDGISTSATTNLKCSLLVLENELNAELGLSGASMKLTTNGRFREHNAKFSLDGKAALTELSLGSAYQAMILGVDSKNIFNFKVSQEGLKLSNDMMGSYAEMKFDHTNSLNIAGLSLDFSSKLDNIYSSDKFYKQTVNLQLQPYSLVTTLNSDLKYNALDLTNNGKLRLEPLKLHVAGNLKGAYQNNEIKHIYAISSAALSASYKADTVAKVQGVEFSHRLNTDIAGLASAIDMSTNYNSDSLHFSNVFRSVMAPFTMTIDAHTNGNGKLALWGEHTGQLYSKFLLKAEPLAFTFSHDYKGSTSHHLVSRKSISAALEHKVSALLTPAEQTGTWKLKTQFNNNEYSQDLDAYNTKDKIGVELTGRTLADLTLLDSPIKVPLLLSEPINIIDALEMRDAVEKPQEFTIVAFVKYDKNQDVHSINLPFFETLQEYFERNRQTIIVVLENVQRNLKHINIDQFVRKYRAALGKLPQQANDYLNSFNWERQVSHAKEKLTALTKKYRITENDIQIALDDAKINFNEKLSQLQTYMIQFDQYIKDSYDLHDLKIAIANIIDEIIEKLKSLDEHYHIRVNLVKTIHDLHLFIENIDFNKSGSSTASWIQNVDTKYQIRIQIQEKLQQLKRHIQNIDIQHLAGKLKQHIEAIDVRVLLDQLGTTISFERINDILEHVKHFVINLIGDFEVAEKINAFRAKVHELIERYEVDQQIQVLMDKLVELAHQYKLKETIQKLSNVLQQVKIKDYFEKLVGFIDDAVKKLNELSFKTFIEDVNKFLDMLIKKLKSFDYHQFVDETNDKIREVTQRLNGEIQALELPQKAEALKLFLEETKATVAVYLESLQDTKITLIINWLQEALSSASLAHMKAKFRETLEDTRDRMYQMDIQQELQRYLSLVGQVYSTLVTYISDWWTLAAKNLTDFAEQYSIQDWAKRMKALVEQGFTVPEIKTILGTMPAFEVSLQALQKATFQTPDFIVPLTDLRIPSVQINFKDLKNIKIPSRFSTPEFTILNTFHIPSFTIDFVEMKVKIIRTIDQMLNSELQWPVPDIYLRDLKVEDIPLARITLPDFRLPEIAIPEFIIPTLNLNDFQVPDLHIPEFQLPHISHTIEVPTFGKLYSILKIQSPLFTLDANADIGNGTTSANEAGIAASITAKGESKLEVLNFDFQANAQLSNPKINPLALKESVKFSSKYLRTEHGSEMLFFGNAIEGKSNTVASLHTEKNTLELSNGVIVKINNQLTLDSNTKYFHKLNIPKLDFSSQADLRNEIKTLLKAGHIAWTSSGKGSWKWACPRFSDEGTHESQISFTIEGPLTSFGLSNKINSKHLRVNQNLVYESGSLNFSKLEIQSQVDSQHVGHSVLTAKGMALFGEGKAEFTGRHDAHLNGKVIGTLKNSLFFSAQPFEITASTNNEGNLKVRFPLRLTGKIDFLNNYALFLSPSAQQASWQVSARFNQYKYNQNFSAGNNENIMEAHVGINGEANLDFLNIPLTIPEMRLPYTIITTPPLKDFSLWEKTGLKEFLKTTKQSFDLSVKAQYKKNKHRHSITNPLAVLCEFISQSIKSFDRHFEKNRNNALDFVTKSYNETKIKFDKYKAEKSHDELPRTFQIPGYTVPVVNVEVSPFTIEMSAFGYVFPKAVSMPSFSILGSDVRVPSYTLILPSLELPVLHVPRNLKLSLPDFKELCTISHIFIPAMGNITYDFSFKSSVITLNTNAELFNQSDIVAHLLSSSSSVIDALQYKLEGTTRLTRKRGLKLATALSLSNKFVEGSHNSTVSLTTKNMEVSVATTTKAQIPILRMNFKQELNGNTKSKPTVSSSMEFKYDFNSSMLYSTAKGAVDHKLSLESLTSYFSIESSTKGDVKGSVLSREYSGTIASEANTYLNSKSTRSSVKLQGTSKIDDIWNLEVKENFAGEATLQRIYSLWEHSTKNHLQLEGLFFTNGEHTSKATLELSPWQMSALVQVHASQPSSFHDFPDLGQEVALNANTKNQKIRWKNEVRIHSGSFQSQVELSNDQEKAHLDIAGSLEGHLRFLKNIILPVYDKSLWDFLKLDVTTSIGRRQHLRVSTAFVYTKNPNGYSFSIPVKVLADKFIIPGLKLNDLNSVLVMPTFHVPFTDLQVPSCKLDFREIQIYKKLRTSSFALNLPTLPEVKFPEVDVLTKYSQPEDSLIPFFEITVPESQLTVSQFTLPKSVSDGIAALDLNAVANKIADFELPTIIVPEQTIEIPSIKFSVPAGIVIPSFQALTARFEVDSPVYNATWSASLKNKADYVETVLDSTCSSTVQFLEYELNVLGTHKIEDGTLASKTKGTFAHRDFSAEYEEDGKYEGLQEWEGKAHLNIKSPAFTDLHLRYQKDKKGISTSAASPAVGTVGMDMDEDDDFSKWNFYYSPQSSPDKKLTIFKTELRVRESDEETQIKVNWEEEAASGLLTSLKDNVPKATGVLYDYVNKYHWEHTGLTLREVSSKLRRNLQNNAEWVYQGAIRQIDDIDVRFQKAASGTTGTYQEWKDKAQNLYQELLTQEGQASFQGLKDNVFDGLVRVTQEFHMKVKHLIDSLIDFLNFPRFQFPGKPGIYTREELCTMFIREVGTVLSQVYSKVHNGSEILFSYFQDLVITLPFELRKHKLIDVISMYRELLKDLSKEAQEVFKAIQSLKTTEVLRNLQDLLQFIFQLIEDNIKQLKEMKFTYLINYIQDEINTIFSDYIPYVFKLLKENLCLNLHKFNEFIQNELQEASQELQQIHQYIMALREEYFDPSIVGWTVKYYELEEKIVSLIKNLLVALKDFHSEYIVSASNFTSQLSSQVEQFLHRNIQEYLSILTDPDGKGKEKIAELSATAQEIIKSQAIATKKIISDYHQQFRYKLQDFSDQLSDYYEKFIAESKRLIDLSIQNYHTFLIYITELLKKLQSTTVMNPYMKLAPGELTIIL

[4] = target: biotinylated LDL (low density lipoprotein particle) (UniProt P04114); experiment: pull-down; mixture of biotinylated LDL and peptide; pulldown of LDL, immunoblot with anti-LL37 or anti-Cramp (the paper calls it coimmunoprecipitation); phosphatidylcholine did not block the binding of LL37; both purified

binding [1]: binds | binding [2]: binds | binding [3]: binds | binding [4]: no binding
Binder: ISRLAGLLRKGGEKIGEKLKKIGQKIKNFFQKLVPQPE (peptide, UniProt P51437 135-172) [Cramp, mouse cathelicidin mature peptide]

Source: paper PMC10904043
